How the values were obtained:
Experiment in all cases: co-IP
[1] = molecular target: T1, His-tagged Bid (recombinant wild-type Bid) (mouse, UniProt P70444)
T1 sequence: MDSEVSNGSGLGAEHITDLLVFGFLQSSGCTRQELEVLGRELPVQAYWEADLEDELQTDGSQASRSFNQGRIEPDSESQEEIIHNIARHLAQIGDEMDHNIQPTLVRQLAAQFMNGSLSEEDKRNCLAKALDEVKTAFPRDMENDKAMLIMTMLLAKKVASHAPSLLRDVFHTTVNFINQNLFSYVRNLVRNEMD

BidmIII-1 (M97,D98→ A,A) = molecular target: T2, BidmIII-1 (M97,D98→ A,A) (mouse, UniProt P70444, M97,D98→ A,A)
T2 sequence: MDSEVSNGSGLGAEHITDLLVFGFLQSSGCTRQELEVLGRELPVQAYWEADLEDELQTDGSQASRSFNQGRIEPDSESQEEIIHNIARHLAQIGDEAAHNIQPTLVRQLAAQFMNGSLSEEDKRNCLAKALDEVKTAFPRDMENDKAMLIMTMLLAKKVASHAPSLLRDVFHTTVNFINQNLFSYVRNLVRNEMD

BidmIII-3 (G94→ A) = molecular target: T3, BidmIII-3 (G94→ A) (mouse, UniProt P70444, G94→ A)
T3 sequence: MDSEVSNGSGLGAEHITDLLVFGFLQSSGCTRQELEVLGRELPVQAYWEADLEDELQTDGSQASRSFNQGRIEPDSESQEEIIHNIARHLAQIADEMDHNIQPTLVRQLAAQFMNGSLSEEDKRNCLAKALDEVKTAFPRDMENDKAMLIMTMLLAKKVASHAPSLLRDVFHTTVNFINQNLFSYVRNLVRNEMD

Measured: binding result

B1: Human Bax-α lacking 20 amino acids at the COOH terminus (domain or fragment)
chain: not shown
binds: all assays above

Source: publication PMC2148190 (The Journal of Cell Biology, 1999)
